Measurements published in article PMC6919601, “Identification of Plasmodium dipeptidyl aminopeptidase allosteric inhibitors by high throughput screening” (PLoS ONE, 2019).
Among all 110,000 compounds or so, about 230 (0.21%) showed an effect of 50% or more. The list shows a part of the results.

Each compound was assayed against DPAP1 (Plasmodium falciparum, UniProt Q8IIJ9) (assay: primary screen, percent inhibition; read by cleavage of a fluorogenic dipeptide substrate; higher = more effect of the substance).
Parameters: species or system P. falciparum D10 trophozoite lysates; single well
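Note: 30 min substrate incubation versus DMSO and 10 µM JCP410 controls.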

DPAP1, sequence (Q8IIJ9 whole entry, looked up): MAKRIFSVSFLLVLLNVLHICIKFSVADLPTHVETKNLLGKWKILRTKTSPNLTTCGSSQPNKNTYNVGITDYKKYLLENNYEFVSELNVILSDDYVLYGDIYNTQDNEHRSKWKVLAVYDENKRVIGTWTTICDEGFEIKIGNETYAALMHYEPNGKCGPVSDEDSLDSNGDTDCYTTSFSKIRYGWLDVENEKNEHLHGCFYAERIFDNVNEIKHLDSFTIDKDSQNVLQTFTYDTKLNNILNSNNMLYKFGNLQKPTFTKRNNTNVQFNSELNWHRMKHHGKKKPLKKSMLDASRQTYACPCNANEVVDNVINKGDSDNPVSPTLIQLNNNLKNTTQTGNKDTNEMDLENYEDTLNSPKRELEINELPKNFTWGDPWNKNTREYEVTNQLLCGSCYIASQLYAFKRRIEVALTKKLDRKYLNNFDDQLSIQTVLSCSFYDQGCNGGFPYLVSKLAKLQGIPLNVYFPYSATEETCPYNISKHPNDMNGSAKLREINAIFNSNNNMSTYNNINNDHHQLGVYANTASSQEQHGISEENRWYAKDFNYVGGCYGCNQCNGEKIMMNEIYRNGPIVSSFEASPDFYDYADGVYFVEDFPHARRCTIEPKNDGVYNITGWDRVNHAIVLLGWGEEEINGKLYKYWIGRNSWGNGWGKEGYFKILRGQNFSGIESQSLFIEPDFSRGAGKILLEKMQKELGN

Structure (SMILES)	% Inhibition @ 10 uM [%]
Oc1nncn2c1cc1sccc12	48.7
COc1cccc(CNCc2cccc(Br)c2)c1OC	-4.16
CCOC(=O)C(Cc1ccc(O)cc1)NC(C)=O (centres unmarked)	-1.77
O=C(NCCNC(=O)C1c2ccccc2Oc2ccccc21)C1c2ccccc2Oc2ccccc21	-2.64
COc1c(Cl)cc(/C=C2\SC(N)=NC2=O)cc1Cl	2.26
CC(=O)/C=C/c1oc2ccccc2c1-c1ccc(C)o1	0.147
Cc1cc(=O)cc(C)n1-c1ccccc1O	7.82
Cc1cccc(C)c1-n1nnnc1C1(Nc2ccc(F)c(Cl)c2)CCCCC1	-3.98
CS(=O)(=O)N1CCC(C(=O)Nc2cccc(C(F)(F)F)c2)CC1	-0.992
Cc1cc(Cl)cc(Cl)c1OCC(=O)Nc1cccnc1	1.37
Cc1cc(C)c2c(n1)nn1c(C)c(CCC(=O)NCc3ccc4c(c3)OCO4)c(C)nc21	-4.24
COc1ccc(Br)cc1CNC(=O)c1ccc2c(c1)ncn2C1CCCC1	3.66
COC(=O)c1ccc(COc2ccc3c(c2)O/C(=C\c2ccc(OC)cc2)C3=O)cc1	-3.63
CCCc1cc(O)n2nc(NCc3cccs3)nc2n1	-0.671
COc1ccc(-c2[nH]nc3c2C(c2ccc(C(C)C)cc2)NC3=O)cc1 (centres unmarked)	-3.35
COC(=O)c1c(C)nn(-c2ccc(C)cc2)c1N	1.63
CC(=O)c1c(N)nc(-c2ccccc2)nc1S	-5.51
Cc1nc2ccccc2cc1C(=O)Nc1ccc(F)cc1	3.49
NC(=O)c1c(NC(=O)c2ccccc2F)sc2c1CCCCCC2	24.9
Cc1ccc(CSCCNC(=O)c2ccccc2C)cc1	3.62
O=C(CSCC(=O)c1ccc2c(c1)Cc1ccccc1-2)Nc1ccccc1	-1.96
O=C(COc1ccccc1Cl)Nc1ncc(Cc2cccc(C(F)(F)F)c2)s1	-1.26
O=C(NCCO)/C(=C/c1ccc(-c2ccc([N+](=O)[O-])cc2)o1)NC(=O)c1ccccc1	-2.59
COc1cc(-c2cc(C(=O)O)c3c(OC)c(OC)c(OC)cc3n2)ccc1O	4.23
COc1nc(NCCCN2CCOCC2)nc(N2CCCCCC2)n1	-9.29
COc1ccc(C(=O)Nc2nc(C34CC5CC(CC(C5)C3)C4)c(C)s2)cc1	-1.93

Structure (SMILES)	% Inhibition @ 10 uM [%]
Nc1ccc(-c2nc3cc(-c4ccc5[nH]c(-c6ccc(N)cc6)nc5c4)ccc3[nH]2)cc1	18.3
COCCCNCc1c(C(=O)O)n(Cc2ccccc2)c2cc(OC)ccc12	1.53
O=C1CCCCC1C(Nc1ccc2ncccc2c1)c1ccc(F)cc1 (centres unmarked)	8.53
COc1ccc(-c2nc3n(n2)C(c2cccc(O)c2)C(C(=O)Nc2cccnc2)=C(C)N3)cc1 (centres unmarked)	0.275
Clc1ccccc1N1N=C(c2ccccc2)CC1c1ccc(Br)cc1 (centres unmarked)	-3.92
COc1ccc(-c2cc(C(=O)NCCN3CCOCC3)c3ccccc3n2)cc1	-6.04
O=C(Nc1cnn(Cc2ccc(Cl)cc2)c1)C1CCCCC1	-1.88
Cc1ccc(Cn2ncn3c(cc4ccccc43)c2=O)cc1	-3.34
COc1ccc(C(=O)c2sc3nc(C)cc(-c4cccs4)c3c2N)cc1	12
O=C1S/C(=C/c2ccccc2)C(=O)N1CC(O)Cn1c2ccccc2c2ccccc21 (centres unmarked)	-2.27
O=C(Nc1cccc(Cl)c1)Nc1ccc(F)c(Cl)c1	2.74
COc1cccc(/N=C2\SC(C(=O)Nc3ccccc3OC)CC(=O)N2C)c1 (centres unmarked)	2.08
O=C(Nc1cccc(O)c1)c1ccc(Oc2cccc(C(=O)Nc3cccc(O)c3)c2)cc1	10.3
CC(C)(C)OC(=O)N1CCC(c2c(C(=O)N3CCOCC3)cnn2-c2cccc(Cl)c2)CC1	1.06
O=C1CNC(c2ccccc2)c2cc(Br)ccc2N1 (centres unmarked)	1.7
Cc1sc(NC(=O)c2cccnc2)c(C(=O)c2ccc(Br)cc2)c1C	4.11
O=C(CC1(c2ccccc2)C(=O)c2ccccc2C1=O)Nc1ccccc1	0.132
N#CCNC(=O)[C@H](CC1CCCCC1)NC(=O)c1cccc(C(=O)OCc2ccccc2)c1	-1.83
OCC1OC(Oc2cccc3ccccc23)C(O)C(O)C1O (centres unmarked)	-2.02
COc1cc(OC)cc(C(=O)Nc2nc(-c3nnn(-c4cc(OC)ccc4OC)c3C)ns2)c1	-9.88
OCCN(CCO)Cc1ccc(F)cc1F	-0.0908
Cc1cc(=O)n2nc(N3CCCC(C(=O)N4CCC(Cc5ccccc5)CC4)C3)sc2n1 (centres unmarked)	-0.281
Cc1c(C(=O)N2CCOCC2)[nH]c2c1C(=O)CC(c1ccccc1Cl)C2 (centres unmarked)	-5.2
Cc1ccc(OCC(O)CN(CCO)CCO)cc1 (centres unmarked)	-0.386
CCOC(=O)N1CCN(C(=O)c2ccc(CN3CCc4ccccc4C3)cc2)CC1	-0.0626
CC(=O)C[C@H]1[C@](C)(OC(C)=O)CCC2C(C)(C)CCC[C@@]21C (some centres unmarked)	-1.85

Structure (SMILES)	% Inhibition @ 10 uM [%]
CCCCC(=O)NC1(C(F)(F)F)C(=O)N(Cc2ccco2)C(C)=C1C(C)=O (centres unmarked)	2.31
O=S(=O)(c1ccc(-c2csc(-c3ccccc3)n2)cc1)N1CCOCC1	3.66
Cc1nc(Cl)c(C(=O)N(C)Cc2ccccc2)c(C)c1Cl	3.49
N=C1/C(=C\c2ccc(SCc3ccco3)o2)C(=O)N=C2SC(c3cccs3)=NN12	0.458
CC1CCN(C(c2cccs2)c2ccc3cccnc3c2O)CC1 (centres unmarked)	-12
O=C(Nc1ccc(Cl)c(C(=O)O)c1)NC1CCCCC1	3.56
O=C(Cn1ncc2c1-c1ccccc1OC2)NCc1ccccc1Cl	0.981
O=C(CCC(=O)N1CCc2ccccc2C1)N1CC=C(c2c[nH]c3ccccc23)CC1	-3.34
CCC(=O)c1ccc2c(c1)OCCOCCOc1cc(C(=O)CC)ccc1OCCOCCO2	-1.28
O=C(Cn1nc(C(F)(F)F)cc1C1CC1)Nc1cnn(Cc2ccc(F)cc2)c1	-4.72
Cc1ccc(OCC(=O)N(Cc2nc(-c3ccc(C)cc3)no2)C(C)C)cc1	0.809
Clc1ccc(CN2CCN(C/C=C/c3ccccc3)CC2)cc1Cl	1.48
CC1(C)CC(=O)c2cnc(NC(=O)Nc3ccc(Cl)c(Cl)c3)nc2C1	-8.2
Cc1cccc(C)c1NC(=O)CCCC(=O)O	-3.77
CC(=O)N1N=C(C(F)(F)F)CC1(O)c1ccncc1 (centres unmarked)	1.72
CC(C)(C)c1cc(C(C)(C)C)cc(S(N)(=O)=O)c1	-1.69
Cc1cc(CN2CCN(C3CCCCC3)CC2)cs1	-4.51
Cn1c2ccccc2c2cnn(CC(=O)N3CCC4(CC3)OCCO4)c(=O)c21	-1.92
Cc1nnc(C)n1/N=C\c1c(F)cccc1Cl	1.39
c1ccc(CN2CCn3c4c(c5ccccc53)CCCC42)cc1 (centres unmarked)	-1.25
CCCc1cc(O)n2nc(NC(=O)CCc3ccccc3)nc2n1	-1.31
CCS(=O)(=O)c1nc(S(=O)(=O)c2ccc(Cl)cc2)c(NCCOC)s1	-9.79
CCSc1nncc(-c2ccccc2)n1	-2.48
Cc1ccc2cc3cc(C(=O)NC4CCCCC4)oc3nc2c1	-1.54
O=C1C2C(c3ccccc3)OC3(C(=O)c4ccccc4C3=O)C2C(=O)N1c1ccc(F)cc1 (centres unmarked)	3.74
CC(=O)Nc1ccc(S(=O)(=O)Nc2cccc(Cl)c2C)cc1	1.63

Structure (SMILES)	% Inhibition @ 10 uM [%]
CC1CN(Cc2ccc(Br)cc2)CC(C)O1 (centres unmarked)	0.273
Cc1nccn1CCCNC(=O)c1nc(-c2cccs2)no1	2.65
CC(=O)c1ccc(OCCOc2ccc([N+](=O)[O-])cc2)cc1	-2.62
O=S(=O)(c1c(F)cccc1F)N1CCN(Cc2ccc3c(c2)OCO3)CC1	-12.8
CC(=O)c1c(CC(=O)O)nn(-c2nc3ccccc3s2)c1O	-5.62
O=C(c1ccccc1Br)N1CCN(CCN2C(=O)c3cccc4cccc(c34)C2=O)CC1	2.36
O=C(O)C1C2C=CC(C2)C1C(=O)Nc1cc(C(F)(F)F)ccc1Cl (centres unmarked)	-2.09
C=CCOCCN(C)C1=NS(=O)(=O)c2ccccc21	10.9
COc1ccc(CNC(=O)COc2ccc(S(=O)(=O)NC(C)C)cc2)cc1	-10.8
CC1=C(C(=O)OCc2ccccc2)C(c2ccc(C)s2)NC(=O)N1 (centres unmarked)	1.26
OC(Cc1nc2ccccc2n1-c1ccccc1)(c1ccccc1)c1ccccc1	1.84
O=C(O)C1CCCN(C(=O)c2cnn(-c3ccccc3)c2-n2cccc2)C1 (centres unmarked)	-0.0309
CCOC(=O)c1nn(-c2ccccc2)c(O)c1/C=C1\C=Nc2ccccc21	2.65
Cc1cc(C)c2oc(C(=O)N(Cc3ccccc3)c3ccccn3)cc(=O)c2c1	-1.47
NC(=O)c1cccc2c1C(=O)N(C1CCCCC1)C2	-4.93
COCC(C)NC1CCN(Cc2ccccc2)CC1 (centres unmarked)	3.18
N#CC1=C(N)OC2=C(COc3ccccc32)C1c1cccc(F)c1 (centres unmarked)	3.99
CCc1nnc(NC(=O)c2nc(S(=O)(=O)Cc3ccccc3)ncc2Cl)s1	2.41
CCCc1cc2c(cc1N)OCCO2	-2.48
CCOc1ccc(C(=O)Nc2nnc(S(=O)(=O)N3CCCCC3)s2)cc1	-3.74
O=C(CN(Cc1ccc(Cl)c(Cl)c1)S(=O)(=O)c1ccccc1)NCc1ccccn1	-5.49
Oc1ccccc1-c1nc(O)c2c3c(sc2n1)CCCC3	-0.891
Cc1cccc(NC(=O)COc2ccccc2C)c1	-2.12
